# In all, about 390,000 compounds went through this assay and about 4,700 (1.2%) were called active. The inconclusive results got no clear call from the source; some entries with a clear call stand among them for comparison. Calls follow the shape of the dose curve; as a rule, active = well fitted inhibition curve with a large enough effect; inconclusive = small, poorly fitted or top-dose-only effect, or another doubt; inactive = no such curve, though single readings can be large or run the other way. Potencies of inconclusive entries are doubtful fits and often do not repeat.
# Target: DNA polymerase eta (Homo sapiens) (UniProt Q9Y253)
# Chain of UniProt Q9Y253 (Q9Y253 whole entry, looked up): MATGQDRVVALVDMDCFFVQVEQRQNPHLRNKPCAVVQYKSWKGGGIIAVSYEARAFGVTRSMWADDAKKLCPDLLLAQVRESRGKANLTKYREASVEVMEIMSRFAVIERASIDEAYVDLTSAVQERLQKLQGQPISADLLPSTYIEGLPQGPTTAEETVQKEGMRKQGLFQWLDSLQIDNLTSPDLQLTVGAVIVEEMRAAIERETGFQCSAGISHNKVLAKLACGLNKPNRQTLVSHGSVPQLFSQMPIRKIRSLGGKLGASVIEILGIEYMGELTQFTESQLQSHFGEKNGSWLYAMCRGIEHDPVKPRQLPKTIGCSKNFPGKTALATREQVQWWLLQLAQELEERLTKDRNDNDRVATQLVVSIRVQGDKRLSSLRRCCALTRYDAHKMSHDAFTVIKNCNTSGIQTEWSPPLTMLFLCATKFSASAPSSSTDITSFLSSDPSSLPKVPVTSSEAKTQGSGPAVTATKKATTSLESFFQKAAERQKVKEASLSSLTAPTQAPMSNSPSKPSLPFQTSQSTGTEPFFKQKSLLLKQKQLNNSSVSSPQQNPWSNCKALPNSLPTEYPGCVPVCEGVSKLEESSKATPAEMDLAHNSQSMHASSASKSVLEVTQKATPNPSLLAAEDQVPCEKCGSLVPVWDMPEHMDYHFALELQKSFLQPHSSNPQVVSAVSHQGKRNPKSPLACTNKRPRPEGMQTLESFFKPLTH
# Test: qHTS for Inhibitors of Polymerase Eta
# Conditions: recombinant Pol eta, fluorescent DNA replication assay; series mostly up to 114 µM; activity change, negative = inhibition: at the top concentration
# Outline: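 Pol eta (10 nM) was preincubated with compounds for 15 min at room temperature, after which fluorescent replication substrate (50 nM final) was added to start the reaction. Fluorescence was read kinetically at 0 and 10 min.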
# % is scaled to controls: 0 for no effect and ±100 for the full control effect; potency is read from the fitted curve at half-maximal effect; tags tell the direction and shape of the fitted curve.
SMILES,"activity change, negative = inhibition",Potency
O=C1CC(c2nnc(Cc3ccc(Cl)cc3)o2)CN1c1ccccc1 (stereo not given),inactive: -16.8%,
CC(=O)c1cccc(N/C=C\c2nnnn2-c2ccc(F)cc2)c1,,"inconclusive: 22.4 µM [inhibitor, partial curve, poor fit]"
Cc1ccccc1-n1c(-c2ccncc2)n[nH]c1=S,inactive: -7.31%,
COc1ccc(C(CC(=O)N2CCOCC2)c2c(OC)cc(OC)c3ccc(=O)oc23)cc1 (stereo not given),,"inconclusive: 20 µM [inhibitor, full curve]"
Cc1ccc(S(=O)(=O)Nc2ccc(NC(=O)c3c(F)c(F)c(F)c(F)c3F)cc2)cc1,,"inconclusive: 1.12 µM [inhibitor, partial curve, poor fit]"
CCCOC(=O)c1ccc(Nc2nc3ccccc3nc2-n2nc(C)cc2C)cc1,,"inconclusive: 100 µM [inhibitor, partial curve, poor fit]"
COc1cccc(C(=O)Nc2ccccc2-c2nnc(-c3ccc(C(C)(C)C)cc3)o2)c1,inactive: 4.61%,
CCCCN(CC)CCNC(=O)c1cc2c(=O)n(C)c3ccccc3c2s1,inactive: -11.9%,
Cc1ccc2nc(-c3sc4nc(C)cc(C)c4c3N)[nH]c2c1,,"inconclusive: 15.8 µM [inhibitor, single point]"
CCOC(=O)N1CCN(S(=O)(=O)c2ccc(C(=O)N(CCN(C)C)c3nc4c(C)cccc4s3)cc2)CC1,,"inconclusive: 79.4 µM [inhibitor, partial curve, poor fit]"
Cc1noc(C)c1C(=O)OCC(=O)Nc1ncc(Cl)c(C)c1Cl,,active: 20 µM
NS(=O)(=O)c1ccc(NC(=O)CN2CCN(S(=O)(=O)/C=C/c3ccccc3)CC2)cc1,,"inconclusive: 89.1 µM [inhibitor, partial curve, poor fit]"
CCN(CCC(=O)Nc1ccc(Br)c(C)c1)Cc1ccccc1,,"inconclusive: 79.4 µM [inhibitor, partial curve, poor fit]"
Cc1ccc(N2CCN(C(=O)c3c(C)oc4nc(C)nc(N5CCCC5)c34)CC2)c(C)c1,inactive: -16.6%,
O=C1C2CC=C(Cl)CC2C(=O)N1c1ncn[nH]1 (stereo not given),,active: 22.4 µM
COc1ccc(C(=O)/C=C/c2cc(OC)c(O)c(OC)c2)c(F)c1,,"inconclusive: 39.8 µM [inhibitor, single point]"
C#CCOCCOCCOCCNc1nc(N2CCN(C(=O)CCCCCCCCCCNC(=O)Cn3cc(C[C@@H](C)O)nn3)CC2)nc(N2CCN(C(=O)CCCCCCCCCCNC(=O)[C@H](CCCN=C(N)N)n3cc(C[C@@H](C)CC)nn3)CC2)n1,,"inconclusive: 79.4 µM [inhibitor, partial curve, poor fit]"
Cc1ccc(/C(C#N)=C\c2ccc(N3CCOCC3)o2)cc1,inactive: -8.21%,
Cc1ccccc1C(=O)c1cccn1CC(=O)NCCN1CCN(c2cccc(C)c2C)CC1,,"inconclusive: 56.2 µM [inhibitor, partial curve, poor fit]"
COc1ccc(S(=O)(=O)N(C)C[C@H]2Oc3ccc(NC(=O)NC4CCCCC4)cc3C(=O)N([C@H](C)CO)C[C@@H]2C)cc1,,"inconclusive: 89.1 µM [inhibitor, partial curve, poor fit]"
CCOc1cc(/C=C2/NC(=S)NC2=O)ccc1OCc1ccc([N+](=O)[O-])cc1,,"inconclusive: 10 µM [inhibitor, full curve]"
COc1cc(OC)cc(C(=O)Nc2nc(-c3nnn(-c4ccc(F)c(Cl)c4)c3C)ns2)c1,inactive: -12.9%,

SMILES,"activity change, negative = inhibition",Potency
CC(=O)n1cc(N(C(=O)CCl)c2ccc([N+](=O)[O-])cc2)c2ccccc21,,active: 39.8 µM
O=S(=O)(NCc1cccs1)c1cccc2cccnc12,inactive: -4.51%,
CC(C)Cc1nnc(NC(=O)c2cc(S(=O)(=O)N(C)C)ccc2N2CCCC2)s1,,"inconclusive: 100 µM [inhibitor, partial curve, poor fit]"
N#Cc1c(N2CCCCC2)nc(N)c2c(N)nc(SCC(=O)O)cc12,,active: 22.4 µM
O=S(=O)(Nc1ccccc1)c1cccc2nsnc12,,"inconclusive: 50.1 µM [inhibitor, partial curve, poor fit]"
CCOc1ccc(-c2ccc(/C=C3/C(=N)N4C=CSC4=NC3=O)o2)c([N+](=O)[O-])c1,,"inconclusive: 12.6 µM [inhibitor, partial curve, poor fit]"
O=C(O)CCN1C(=O)/C(=C\c2ccc(-c3nc4ccccc4s3)o2)SC1=S,,active: 2.51 µM
O=C(O)C1Cc2ccccc2CN1C(=O)COc1ccc(Cl)cc1 (stereo not given),,active: 31.6 µM
COc1ccc(S(=O)(=O)n2nc(-c3cc(OC)c(OC)c(OC)c3)cc2N)cc1OC,,"inconclusive: 79.4 µM [inhibitor, partial curve, poor fit]"
Cc1nc2ccccc2c(=O)n1/N=C/c1ccccc1O,inactive: -20.4%,
COc1ccc2nc3sc(C(=O)N4CCN(c5ccccc5)CC4)cc3cc2c1,inactive: -11.9%,
CCC1C/C(=C\c2cc(OC)c(OC)cc2OC)C(=O)/C(=C/c2cc(OC)c(OC)cc2OC)C1 (stereo not given),,"inconclusive: 79.4 µM [inhibitor, partial curve, poor fit]"
Cc1ccc2cccc(S(=O)(=O)Nc3ccc4c(c3)OCO4)c2n1,,"inconclusive: 39.8 µM [inhibitor, partial curve]"
COc1cccc(-c2nc(CS(=O)(=O)CC(=O)Nc3cc(F)ccc3F)c(C)o2)c1,,inactive
COc1ccc(-c2cnnc(N/N=C/c3ccc(O)c(O)c3)n2)cc1,,active: 20 µM
Cc1ccc(Cc2c(C)nc3nc(SCC(=O)NCc4ccco4)nn3c2C)cc1,,"inconclusive: 25.1 µM [inhibitor, partial curve, poor fit]"
COC(=O)c1ccc([C@H]2Nc3ccc(S(=O)(=O)Nc4ccc(C)cc4)cc3[C@H]3C=CC[C@H]32)cc1,,"inconclusive: 89.1 µM [inhibitor, partial curve, poor fit]"
COc1ccc2ccccc2c1C1CC(=O)N2CN(C3CCCCC3)CSC2=C1C#N (stereo not given),,"inconclusive: 35.5 µM [inhibitor, partial curve, poor fit]"
Oc1ccc(N2Cc3ccccc3C2)cc1,,"inconclusive: 89.1 µM [inhibitor, single point]"
Cc1ccn2c(=O)nc(SCC(=O)c3ccc(Cl)cc3)nc2c1,,"inconclusive: 14.1 µM [inhibitor, partial curve, poor fit]"
CC(C)(C)c1ccc(S(=O)(=O)c2cnc(SCC(=O)Nc3ccc(F)c(Cl)c3)[nH]c2=O)cc1,,active: 28.2 µM
O=C1CC(c2ccco2)CC(O)=C1C=Nc1cc(Cl)ccc1O (stereo not given),,active: 35.5 µM

SMILES,"activity change, negative = inhibition",Potency
Cc1nc2ccccc2c(=O)n1/N=C/c1ccc2ccccc2c1O,inactive: 0.353%,
O=C(NCc1ccco1)c1c[nH]c2ccc(S(=O)(=O)Nc3ccc(F)cc3F)cc2c1=O,,active: 50.1 µM
C=CCN(Cc1nc(-c2ccc(OC)cc2)no1)C(=O)c1ccc2c(c1)OCO2,,"inconclusive: 79.4 µM [inhibitor, partial curve, poor fit]"
O=C1[C@H]2[C@@H](/C=C/c3ccccc3)N3C(=O)CN(CCO)C(=O)[C@@]3(Cc3ccccc3)[C@H]2C(=O)N1c1ccccc1,,"inconclusive: 70.8 µM [inhibitor, partial curve, poor fit]"
COC(=O)c1ccc(NC2=C(Cl)C(=O)OC2OC(=O)c2ccccc2)cc1 (stereo not given),inactive: -13%,
CC(=O)c1ccc2c(c1)C1C=CCC1C(c1ccncc1)N2 (stereo not given),,"inconclusive: 20 µM [inhibitor, full curve]"
Cc1n[nH]c(C)c1S(=O)(=O)N1CCC(C(=O)Nc2cccc(F)c2)CC1,inactive: 2.29%,
COCOCCn1cc(CN2CCS(=O)(=O)N(Cc3ccc(-c4ccc(OC)nc4)cc3)C(C(C)C)C2=O)nn1 (stereo not given),,"inconclusive: 31.6 µM [inhibitor, single point]"
Cc1ccc([N+](=O)[O-])cc1S(=O)(=O)Nc1ccc(C(=O)NCC2CCCO2)cc1 (stereo not given),,active: 79.4 µM
O=c1c2ccccc2nc2c3ccccc3c(NCc3ccco3)nn12,,"inconclusive: 35.5 µM [inhibitor, single point]"
O=C1C=C(c2ccc(-c3ccccc3)cc2)C[C@@H](c2ccc3c(c2)OCO3)C1,inactive: -5.98%,
O=C(CSc1ccc(-c2nc3ccccc3[nH]2)cn1)Nc1ccc(S(=O)(=O)N2CCCC2)cc1,,"inconclusive: 6.31 µM [inhibitor, partial curve, poor fit]"
CN(Cc1ccccc1)C(C(=O)NC1CCCCC1)c1ccc(Cl)cc1 (stereo not given),inactive: -22.2%,
CC1(C)CC(=O)C(C(C2=C(O)CC(C)(C)CC2=O)c2ccc(O)c([N+](=O)[O-])c2)=C(O)C1,,"inconclusive: 44.7 µM [inhibitor, partial curve]"
CC(C)(C)C(=O)CSc1ncnc2sc3c(c12)CCC3,,"inconclusive: 79.4 µM [inhibitor, partial curve, poor fit]"
CCc1nnc(NS(=O)(=O)c2ccc(NC(=S)NC(=O)/C=C/c3ccc(C(C)C)cc3)cc2)s1,,active: 44.7 µM
COc1ccc(-n2nc(C(=O)NCC(=O)N3CCN(Cc4ccccc4)CC3)c3ccccc3c2=O)cc1OC,,"inconclusive: 89.1 µM [inhibitor, partial curve, poor fit]"
CC1CCc2c(sc(NC(=O)C3CCCO3)c2C#N)C1 (stereo not given),inactive: 0.671%,
COc1ccc2c(c1)CCN1C2CCN2C(=O)CCC21 (stereo not given),inactive: -4.24%,
Nc1cc(S(=O)(=O)N2CCCCC2)ccc1N1CCCCC1,,"inconclusive: 0.631 µM [inhibitor, full curve, poor fit]"
O=c1cc2nc(-c3ccccc3)nc(SCc3cccc(Br)c3)n2[nH]1,,"inconclusive: 100 µM [inhibitor, partial curve, poor fit]"
